{"source": "PubChem BioAssay AID938", "about": "(National Center for Advancing Translational Sciences (NCATS), 2007)", "note": "Out of some 73,000 compounds screened, about 1,800 (2.5%) were called active. This list was built around the results that the source calls inconclusive (neither active nor inactive); the mix of calls is not that of the screen. Calls follow the shape of the dose curve; as a rule, active = well fitted activation curve with a large enough effect; inconclusive = small, poorly fitted or top-dose-only effect; inactive = no such curve, though single readings can be large or run the other way. No potency is given beside an inconclusive call; the fits are too rough. Potency is read from the fitted curve at half-maximal effect; tags tell the direction and shape of the fitted curve."}
{"assay": "qHTS Assay for Agonists of the Thyroid Stimulating Hormone Receptor: Activators of Intracellular cAMP Concentrations in Parental HEK 293; also: nearly all actives have a fitted effect of over 55% in size; as to activation: % of control where 0% means no effect", "conditions": "parental HEK293 CNG cAMP sensor, membrane potential fluorescence; activation: at 57.1 µM (top of the series) unless noted", "summary_of_the_method": "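Parental HEK 293 cells stably expressing a cAMP-gated CNG channel were loaded with membrane potential dye containing 100 uM RO 20-1724 for 60 min. Compound added for 30 min; depolarization read as fluorescence intensity at 590 nm.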"}
{"smiles": "COc1ccc(Br)cc1CNc1ccc(O)cc1", "activation": "inactive: -13.4%"}
{"smiles": "COc1ccccc1N(C(=O)c1ccco1)C(C(=O)NC1CCCC1)c1cccnc1", "note": "(centres undefined)", "Potency": "inconclusive [activator, partial curve]"}
{"smiles": "CCC(=O)Nc1cc(C(=O)NCC2CCCN2CC)c(OC)cc1N(C)C", "note": "(centres undefined)", "Potency": "inconclusive [activator, partial curve]"}
{"smiles": "CN(C)C(=O)c1ccc(-c2nc(N(C)Cc3ccco3)c3ccccc3n2)cc1", "Potency": "inconclusive [activator, partial curve]"}
{"smiles": "COc1ccc(/C=N/n2cc(-c3ccccc3)nc2N)cc1", "activation": "inactive: 1.68%"}
{"smiles": "CCOC(=O)c1cc2oc(C)cc2n1CC(=O)OC1CCCCC1", "Potency": "inconclusive [activator, partial curve]"}
{"smiles": "O=C(CN1C(=O)CCC1=O)Nc1nc(-c2ccccn2)cs1", "activation": "inactive: 13.9%"}
{"smiles": "C[C@@H](C(=O)O)[C@@H]1C[C@@]1(C)[C@@H](NC(=O)OCc1ccccc1)c1ccccc1", "Potency": "inconclusive [activator, single point]"}
{"smiles": "Cc1ccc2c(c1)c(C)c(C)n2CC(O)Cn1nc(C)c(Br)c1C", "note": "(centres undefined)", "Potency": "inconclusive [activator, single point]"}
{"smiles": "Cc1noc(C)c1C(=O)N1CCC2(CCCN(C(c3ccccc3)c3ccccc3)C2)CC1", "Potency": "inconclusive [activator, single point]"}
{"smiles": "COc1ccc(C2c3c(oc4c(C)cc(C)cc4c3=O)C(=O)N2Cc2cccnc2)cc1OC", "note": "(centres undefined)", "activation": "inactive: -0.689%"}
{"smiles": "CS(=O)(=O)N(CCc1ccccc1)CC(=O)N1CCN(c2ccccc2F)CC1", "Potency": "inconclusive [activator, partial curve]"}
{"smiles": "COc1cc(CN/C(C)=C(\\C#N)C(N)=O)cc(OC)c1OC", "Potency": "inconclusive [activator, single point]"}
{"smiles": "COc1ccc2[nH]cc(CCNc3ncnc4ccc(-c5c(C)noc5C)cc34)c2c1", "Potency": "inconclusive [activator, partial curve]"}
{"smiles": "Cn1c(SCc2nnc(-c3ccccc3Br)o2)nc2sc3c(c2c1=O)CCC3", "Potency": "inconclusive [activator, partial curve, poor fit]"}
{"smiles": "COc1ccc(C(=O)NCc2nc3ccccc3[nH]2)cc1OC", "Potency": "inconclusive [activator, single point]"}
{"smiles": "N#Cc1nc(COc2ccc(F)cc2)oc1N1CCC(Cc2ccccc2)CC1", "Potency": "active: 3.98 µM"}
{"smiles": "O=C(CCN1CCN(c2ccccc2F)CC1)c1ccc(Br)cc1", "Potency": "inconclusive [activator, single point]"}
{"smiles": "O=C(NCCN1CCOCC1)C1CCN(Cc2ccccc2O)CC1", "Potency": "inconclusive [activator, single point]"}
{"smiles": "COc1ccc(OC)c(CN2CCN(c3ccccc3OC)CC2)c1", "Potency": "inconclusive [activator, partial curve]"}
{"smiles": "CC/C=C\\C/C=C\\C/C=C\\CCCCCCCC(=O)O", "activation": "inactive: 5.15%"}
{"smiles": "Clc1cccc(CSc2nnc(-c3cccnc3)n2Cc2ccco2)c1", "Potency": "inconclusive [activator, partial curve]"}
{"smiles": "Cc1ccc(Cn2c(SCCN3CCCCC3)nc3c2c(=O)n(C)c(=O)n3C)cc1", "Potency": "inconclusive [activator, single point]"}
{"smiles": "CC(=O)N(Cc1ccco1)C1(C(=O)NC2CCCCC2)CCCCC1", "Potency": "inconclusive [activator, partial curve]"}
{"smiles": "Cc1ccc(-n2nnc3c(=O)n(Cc4cc(C)ccc4C)cnc32)cc1", "Potency": "active: 20 µM"}
{"smiles": "COc1ccc(/C=N\\n2nnc3ccccc32)cc1", "activation": "inactive: 25.9%"}
{"smiles": "N#Cc1cccc(C(c2nnnn2Cc2ccccc2)N2CCCC2)c1", "note": "(centres undefined)", "activation": "inactive: 15.2%"}
{"smiles": "OCCN[C@@H]1c2cc(Cl)ccc2-c2c(Cl)cc(Cl)cc21", "activation": "inactive: 1.48% [at 11.4 µM]"}
{"smiles": "O=C(Nc1ccccc1N1CCN(c2ccccc2)CC1)c1cccc(F)c1", "Potency": "active: 3.98 µM"}
{"smiles": "COc1ccc(Cn2nnnc2CN(Cc2cc3cc(C)ccc3[nH]c2=O)C2CCCC2)cc1", "Potency": "active: 25.1 µM"}
{"smiles": "C=CCSc1nnc2c(n1)OC(c1cccnc1)Nc1ccccc1-2", "note": "(centres undefined)", "Potency": "inconclusive [activator, single point]"}
{"smiles": "Clc1ccc(-c2nn3c(C4COc5ccccc5O4)nnc3s2)cc1", "note": "(centres undefined)", "Potency": "inconclusive [activator, partial curve]"}
{"smiles": "CC(C)(C)c1c2c(c(C(C)(C)C)c3c1OCN(Cc1ccccc1)C3)OCN(Cc1ccccc1)C2", "activation": "inactive: -6.75% [at 11.4 µM]"}
{"smiles": "COC(=O)NCC(c1cccnc1)N1CCN(c2ccccc2F)CC1", "note": "(centres undefined)", "Potency": "inconclusive [activator, single point]"}
{"smiles": "CCN(CC)S(=O)(=O)c1ccc(-c2nnc(SCc3nnc(-c4ccccc4)o3)o2)cc1", "Potency": "inconclusive [activator, single point]"}
{"smiles": "CCc1cc2ccc(C)cc2nc1SCC(=O)N1CCN(C(=O)c2ccco2)CC1", "Potency": "inconclusive [activator, partial curve]"}
{"smiles": "Cc1ccc(CN2CCN(CC(=O)N3CCc4ccccc4C3)C2=O)cc1", "Potency": "inconclusive [activator, partial curve]"}
{"smiles": "COc1ccc(C2C(C(=O)OCC(=O)N3CCCCC3)CCC(=O)N2c2ccc(OC)cc2)cc1", "note": "(centres undefined)", "Potency": "inconclusive [activator, single point]"}
{"smiles": "O=C(CSc1nc2c(c(=O)n1-c1ccc(Br)cc1)SCC2)NCC1CCCO1", "note": "(centres undefined)", "activation": "inactive: 19.7%"}
{"smiles": "COc1ccccc1N=c1oc2cc(O)ccc2cc1C(=O)NCC1CCCO1", "note": "(centres undefined)", "Potency": "active: 1.58 µM"}
{"smiles": "Cc1cccc(Cn2c(N3CCCCC3C)nc3c2c(=O)[nH]c(=O)n3C)c1", "note": "(centres undefined)", "Potency": "inconclusive [activator, single point]"}
{"smiles": "O=C(NC1CCCCCC1)c1nc2ncccn2n1", "Potency": "inconclusive [activator, single point]"}
{"smiles": "CN(C)c1ncnc2ccc(-c3cccc(NS(C)(=O)=O)c3)cc12", "Potency": "inconclusive [activator, single point]"}
{"smiles": "COc1cccc(Nc2ncc3nc(C)c(=O)n(Cc4cccs4)c3n2)c1", "Potency": "active: 3.16 µM"}
{"smiles": "Cc1noc(C)c1C(=O)OCC(=O)c1cc(C)n(Cc2ccccc2Cl)c1C", "Potency": "active: 25.1 µM"}
{"smiles": "CCOC(=O)c1ccc(COC(=O)c2cc3ccccc3oc2=O)o1", "Potency": "inconclusive [activator, single point]"}
{"smiles": "Nc1ccn([C@H]2CC[C@H](CO)O2)c(=O)n1", "Potency": "inconclusive [activator, partial curve]"}
{"smiles": "COC(=O)c1c(C(=O)OC)c2ccncn2c1Cl", "Potency": "inconclusive [activator, single point]"}
{"smiles": "CCCCCCNC(=O)c1c(N)n(/N=C/c2ccco2)c2nc3ccccc3nc12", "Potency": "inconclusive [activator, partial curve]"}
{"smiles": "COC(=O)c1ccc(CSc2nnnn2Cc2ccccc2)cc1", "Potency": "inconclusive [activator, single point]"}
{"smiles": "COc1ccc(CCCc2nnc(SCC(=O)Nc3cc(C)c(C)cc3Br)o2)cc1", "Potency": "inconclusive [activator, partial curve]"}
{"smiles": "Cc1nc(CSc2nc3[nH]ncc3c(=O)n2-c2ccccc2)cs1", "activation": "inactive: 29.4%"}
{"smiles": "O=C1C2ON(c3ccccc3)C(c3ccccn3)C2C(=O)N1c1ccc(Br)cc1", "note": "(centres undefined)", "Potency": "inconclusive [activator, full curve]"}
{"smiles": "Cc1cc(/C=N/n2cnnc2)c(C)n1-c1ccc(OCc2ccc(F)cc2)cc1", "Potency": "inconclusive [activator, single point]"}
{"smiles": "COc1cc(C2CC(=O)c3cnc(N4CCN(Cc5ccccc5)CC4)nc3C2)cc(OC)c1OC", "note": "(centres undefined)", "Potency": "inconclusive [activator, partial curve]"}
{"smiles": "O=c1c(-c2ccc(F)cc2)nc2cnc(N3CCNCC3)nc2n1C1CC1", "Potency": "inconclusive [activator, single point]"}
{"smiles": "CCOC(=O)N1CCC(Nc2c(NCCN3CCN(Cc4ccccc4)CC3)c(=O)c2=O)CC1", "Potency": "inconclusive [activator, single point]"}
{"smiles": "O=C(NC1CCCCCC1)C1c2ccccc2C(=O)N1C1CC1", "note": "(centres undefined)", "Potency": "inconclusive [activator, partial curve, poor fit]"}
{"smiles": "CCc1ccc(-c2nnn(Cc3nc4ccccc4s3)n2)cc1", "Potency": "active: 15.8 µM"}
{"smiles": "C1CCN(c2nc3nonc3nc2N2CCCCC2)CC1", "Potency": "inconclusive [activator, partial curve]"}
{"smiles": "CCOc1ncccc1C(=O)Nc1ccc(Cl)cc1", "Potency": "inconclusive [activator, single point]"}
{"smiles": "CCOC(=O)c1oc2ccccc2c1CN1CCN(C(=O)c2ccccc2)CC1", "Potency": "inconclusive [activator, partial curve]"}
{"smiles": "CC(C)COc1cc(=O)[nH]c(SCC(C)C)n1", "Potency": "inconclusive [activator, single point]"}
{"smiles": "Cc1ccc(NCCNc2ccc(C)cc2)cc1", "activation": "inactive: -2.73%"}
{"smiles": "Cc1cccc(CNc2nc(-c3ccc(C(=O)N(C)C)cc3)nc3ccccc23)c1", "Potency": "inconclusive [activator, single point]"}
{"smiles": "O=C(c1cccc(F)c1)N1CCC2(CCCN(Cc3ccncc3)C2)CC1", "activation": "inactive: 24.7%"}
{"smiles": "CC(=O)c1c(C)[nH]c(C(=O)OCc2nnc(-c3ccccc3)o2)c1C", "activation": "inactive: 5.11%"}
{"smiles": "CCCCn1c(CN(Cc2ccccc2)Cc2ccccc2)nc2c1c(=O)n(C)c(=O)n2C", "Potency": "inconclusive [activator, full curve]"}
{"smiles": "CCCc1cc2c(n1Cc1cc(F)cc(F)c1)C(C)C1CN(C(=O)c3ccccc3)C(C)(C(=O)OC)C21", "note": "(centres undefined)", "Potency": "inconclusive [activator, partial curve]"}
